In one test the test system is BPLER cells. Put plainly: ATP levels after exposure to BRPA. Format: cell-based, human. Conditions: exposure for 4 hours, when most cells were viable.
The subject of a further test is HMLER cells. Put plainly: ATP levels after exposure to BRPA. Format: cell-based, human. Conditions: exposure for 4 hours, when most cells were viable.

The structures appear in SMILES notation.

For `O=C(O)C(=O)CBr` [BRPA, 3-bromo-pyruvic acid], the results for the “decrease of ATP levels” value in the test on BPLER cells and in the test on HMLER cells were 90% and 60%, respectively.
